Consider 85 compounds from ChEMBL document CHEMBL4888484, “Replenishing the malaria drug discovery pipeline: Screening and hit evaluation of the MMV Hit Generation Library 1 (HGL1) against asexual blood stage Plasmodium falciparum ,using a nano luciferase reporter read-out” (2022).

In all, about 150,000 compounds went through this assay and about 540 (0.36%) showed an effect of 50% or more. The list shows a part of the results.

In general, % Inhibition refers to the change of the read-out against control, counted positive when it falls.

The experiment relates to Plasmodium falciparum. Nature of the experiment: Primary screen in NF54 nanoGlo assay, in single point, at 2uM, 72h; a lower Z score goes with more inhibition. It counts as functional, Erythrocyte. Particulars: timepoint 72 hour.
For `Nc1nc(CCNC(=O)[C@@H]2Cc3ccccc3C(=O)N2)cs1`, the “% Inhibition” value is on record as 5% and the Z score is -1.01.
The corresponding values for `Cc1n[nH]c([C@H]2CCN(Cc3ccccc3C#N)C[C@H]2NC(=O)CN(C)C)n1` are -17% and 2.25.
The matching figures for `N#Cc1ccccc1NC(=O)COc1ccc(OCc2ccccc2)cc1`: -8% and 0.66.
The corresponding values for `CCNC(=O)CNS(=O)(=O)c1c(Cl)cc(Cl)cc1Cl` are -13% and 2.57.
With `COc1ccc(-n2ncc(C(=O)N3CCN(C4CCCCC4)CC3)c2C2CCN(C(=O)OC(C)(C)C)CC2)cc1`, the “% Inhibition” value is -14% and the Z score stood at 2.14.
The corresponding values for `O=C1NC2(CCCC2)C(=O)N1Cc1ccc(-n2cccn2)cc1` are -5% and 0.86.
The matching figures for `O=C(NCCCn1c(-c2ccc(F)cc2)nc2cccnc21)Nc1ccc(Br)cc1F`: -16% and 1.41.
The corresponding values for `CC[C@H](C)N(CC(=O)N(Cc1ccc(F)cc1)Cc1cccs1)S(=O)(=O)c1ccc2ccccc2c1` are -3% and 0.32.
Take `Cc1ccc(NC(=O)c2c(O)c3ccccc3n(-c3ccccc3)c2=O)cc1C`: the “% Inhibition” value is on record as -4% and the Z score is listed as 0.68.
The matching figures for `O=C1CCC2(CCN([C@H]3CCN(c4ccccc4)C3)CC2)CN1`: -8% and 1.62.
The corresponding values for `CCn1ncc(Cl)c1C(=O)N1N=CC[C@]1(O)C(F)(F)F` are 3% and -0.53.
The corresponding values for `C[C@H](NC(=O)CNC(C)(C)C)c1ccc(F)cc1F` are -4% and 0.48.
With `Cc1ccc(NC(=O)Cn2c(=O)n(C3CC3)c(=O)c3nscc32)cc1C`, the “% Inhibition” value is -8% and the Z score was 1.06.
The corresponding values for `CC1CN(C(=O)C(C)OCC2CC2)CC(C)(C)O1` (stereo not given) are 6% and -0.67.
The matching figures for `CCc1cc(-c2[nH]nc(C)c2-c2nc3ccccc3n2C)c(O)cc1O`: -7% and 0.67.
The corresponding values for `O=C(c1c[nH]nc1-c1c(F)cccc1F)N1CCc2cnccc21` are 6% and -1.01.
Regarding `Cc1ccc(-c2nc(S(=O)(=O)c3ccc4c(c3)OCCO4)c(N3CCC(C(N)=O)CC3)o2)cc1`, the “% Inhibition” value is recorded as -14% and the Z score came to 1.89.
The corresponding values for `CC1(C)CN(C(=O)CCCc2nnn[nH]2)[C@H]2CCC[C@H]21` are -7% and 1.47.
The corresponding values for `Oc1ccccc1C1=NN(c2nc(-c3cccc(Cl)c3)cs2)[C@H](c2ccccc2)C1` are 3% and -0.4.
The matching figures for `CCOC(=O)[C@@H]1CCCCN1C1CCC(c2ccccc2)CC1` (stereo not given in full): -11% and 2.11.
Turning to `CCCCN(CC)c1ccc(C(=O)O)cc1`, the “% Inhibition” value is on record as -1% and the Z score came out at 0.1.
The matching figures for `C[C@H](NCc1ncccc1F)c1cccs1`: 4% and -0.54.
The matching figures for `CC(C)[C@H](C)N(Cc1ccco1)C(=O)c1ccncc1Cl`: -10% and 1.25.
The corresponding values for `CC1CN(Cc2ccccc2)CCC1NC(=O)C1CC2CCC1O2` (stereo not given) are -8% and 0.72.
Take `Cc1ccc(CNC(=O)[C@@H](C#N)C(=O)CCn2ccccc2=O)cc1`: the “% Inhibition” value was -6% and the Z score was found to be 0.69.
As to `CC(CO)NC(C)CCc1ccc(OC(F)F)cc1` (stereo not given), the “% Inhibition” value is 2% and the Z score is recorded as -0.4.
The corresponding values for `CCC(C)[C@H](NC(=O)N1CCCC1)C(=O)N(CCOC)CCOC` (stereo not given in full) are -2% and 0.32.
As to `CCCN(CCC)S(=O)(=O)NCCn1ccc(=O)[nH]c1=O`, the “% Inhibition” value was -8% and the Z score stood at 1.17.
Take `COC[C@@](C)(O)CNC(=O)c1c(C)cc(C)cc1C`: the “% Inhibition” value is -12% and the Z score was found to be 1.81.
The corresponding values for `c1c[nH]c([C@@H]2CCCCN2CC2CCC2)n1` are -5% and 0.87.
The corresponding values for `COC[C@]1(O)CCOC2(CCN(Cc3ccc(C#N)cc3)CC2)C1` are -11% and 1.91.
The corresponding values for `C[C@@]1(C(=O)NCCc2ncc[nH]2)CCCCO1` are -9% and 0.79.
As for `Cc1cncc(CCc2nc(-c3ccn(C)n3)no2)c1`, the “% Inhibition” value is -5% and the Z score came to 0.63.
The corresponding values for `Cc1cccc(-n2nc(-c3nc(-c4cccc(Cl)c4)no3)c3ccccc3c2=O)c1` are 21% and -2.4.
The corresponding values for `O=C(Nc1nc2c(s1)CN(Cc1ccccc1)CC2)[C@@H]1COc2ccccc2O1` are -4% and 0.47.
The matching figures for `O=C(CC1CCCCC1)NC1CCN(Cc2cncs2)CC1`: 13% and -1.38.
In the case of `O=C(Cn1cnc2ccccc2c1=O)Nc1ccc(Cl)cn1`, the “% Inhibition” value is recorded as -7% and the Z score worked out at 0.85.
The matching figures for `COc1ccc(-c2csc3ncnc(N4CCC[C@H](CN(C)Cc5cccnc5)C4)c23)cc1`: 0% and -0.02.
The corresponding values for `CC(C)(C)c1cn(C[C@H]2CCCN(C(=O)c3ccc4c(c3)CCO4)C2)nn1` are 8% and -1.37.
Regarding `CCC(C)c1csc(NC(=O)NC2CCC(=O)N(C)C2)n1` (stereo not given), the “% Inhibition” value was -1% and the Z score was 0.21.
The matching figures for `CC1=CC(C)=Nc2cc(S(=O)(=O)N3CCOCC3)ccc2N1`: -1% and 0.12.
The corresponding values for `COc1ccc(CN2C(=O)N[C@@](NC(=O)CCc3ccccc3)(C(F)(F)F)C2=O)cc1` are -3% and 0.37.
The matching figures for `CN(C)c1ccc(NC(=O)c2ccc3c4c(cccc24)CC3)cn1`: 2% and -0.32.
With `CC(=O)c1cc(CN2CCC3(CCC(=O)N(C4CC4)C3)CC2)n(C)c1`, the “% Inhibition” value is given as 3% and the Z score is -0.24.
The corresponding values for `Cc1noc(C)c1CCC(=O)N(C)Cc1csc(-c2cccs2)n1` are -11% and 2.06.
The corresponding values for `COc1cccc(N2CCN(Cc3[nH]cnc3C)[C@@H](C)C2=O)c1` are -9% and 1.8.
Turning to `O=C(NC1CC1)c1ccoc1C(F)(F)F`, the “% Inhibition” value was determined as 8% and the Z score is recorded as -0.98.
The matching figures for `COC1(c2noc(CCc3cncnc3)n2)CCC1`: 2% and -0.26.
`CC(=O)Nc1ccc2cc(S(=O)(=O)N3CCn4c(nc5ccccc54)C3)cc(S(=O)(=O)c3ccccc3)c2c1`: the “% Inhibition” value was -10% and the Z score came to 1.21.
The corresponding values for `CC(=O)Nc1nonc1-n1c(C)ccc1C` are -13% and 1.94.
The corresponding values for `CCN(CC)C(=O)CN[C@@H](Cc1ccc(F)cc1)C(C)C` are -4% and 0.66.
The corresponding values for `Cc1ccc(NC(=O)N(Cc2ccco2)C2CC2)cc1Cl` are -11% and 1.04.
For `Cc1cc(CN2C(=O)NC3(CCCCCCC3)C2=O)no1`, the “% Inhibition” value is recorded as -6% and the Z score was found to be 0.55.
In the case of `O=C(c1ncoc1C1CCCO1)N1CC2CCCC2C1` (stereo not given), the “% Inhibition” value is recorded as -4% and the Z score is recorded as 0.55.
The corresponding values for `COCC1(CNC(=O)N2CC[C@H](N3CCCS3(=O)=O)C2)CCC1` are 6% and -1.23.
The corresponding values for `CCn1c(-c2cc(NC(=O)c3ccc(C)cc3C)[nH]n2)c(C)c2ccccc21` are -16% and 1.76.
As for `Clc1ccc2c(Oc3ccc(-n4cccn4)cc3)ncnc2c1`, the “% Inhibition” value came out at 11% and the Z score is reported as -1.27.
As for `COc1cc(C(=O)O)cc(C(=O)NC[C@@H](c2cccnc2)N2CCCCC2)c1`, the “% Inhibition” value was -3% and the Z score was 0.44.
In the case of `Cc1ccc2nc3c(cc2c1)CCN3C(=O)c1ccc(F)cc1`, the “% Inhibition” value is listed as -9% and the Z score stood at 0.99.
The corresponding values for `CC[C@H](C)CN(C)c1ccc(F)cc1CNCCOCCN(C)C` are 5% and -0.98.
The matching figures for `CCCN(CCC)c1nc(C)nc2c1sc(=S)n2C`: 0% and 0.06.
Take `Cn1cc(CNc2cccc(S(=O)(=O)N3CCC(O)CC3)c2)nn1`: the “% Inhibition” value is -7% and the Z score amounted to 1.58.
The corresponding values for `O=C(NCC1CC2CCC1C2)N1CCOC(Cn2cccn2)C1` (stereo not given) are 32% and -4.62.
With `O=S(=O)(NCc1ccnc(-c2cccnc2)c1)c1ccc(F)c(-c2nnn[nH]2)c1`, the “% Inhibition” value is given as -6% and the Z score was 1.08.
The corresponding values for `Cc1noc(C)c1C(C)CC(=O)N1CC(C)Oc2ncccc21` (stereo not given) are -1% and 0.12.
The corresponding values for `COc1cccc2sc(OC3CN(C(=O)CCc4c(C)noc4C)C3)nc12` are -5% and 0.54.
The corresponding values for `COc1ccc(CCCN2Cc3cc(OC)c(OC)cc3C3(CCCCC3)C2)cc1OC` are -9% and 1.18.
For the compound `Cn1cc(C(=O)NC[C@@H](c2ccsc2)N2CCC2)nn1`, the “% Inhibition” value is given as -8% and the Z score was 1.32.
As for `CCC1CC(NC(=O)N2CCCC(c3ccc(F)c(F)c3)C2)CCO1` (stereo not given), the “% Inhibition” value was -3% and the Z score turned out to be 0.37.
The matching figures for `C[C@H]1CCCN(C(=O)C(=O)Nc2cc(C(F)(F)F)c[nH]c2=O)C1`: -6% and 1.15.
The matching figures for `CC[C@H](C)Oc1cccc(NC(=O)CC(C)(C)C(=O)O)c1`: 5% and -0.76.
The matching figures for `O=C(NC1CCOCC1)N[C@H]1CCN(Cc2ccsc2)C1`: -12% and 1.83.
For `CCN(C[C@H]1CCCCO1)C(=O)c1ccc(-c2cc(O)nc(N)n2)cc1`, the “% Inhibition” value is recorded as -12% and the Z score is 2.19.
The corresponding values for `O=C(COc1ccc(Cl)cc1)NCc1ccccc1CN1CCOCC1` are -12% and 1.41.
The corresponding values for `C[C@H]1Cc2ccccc2N1C(=O)Cn1nc(-n2cccn2)ccc1=O` are -2% and 0.41.
As to `NC(=O)c1ccc(NCCOc2cccc(Cl)c2Cl)nn1`, the “% Inhibition” value is listed as -9% and the Z score is on record as 1.2.
The matching figures for `O=C1O[C@H](C(=O)Nc2ccccc2-n2ccnn2)Cc2ccccc21`: -11% and 1.13.
For `N#Cc1c(NC(=O)Cn2nc3cnccn3c2=O)sc2c1CCCCC2`, the “% Inhibition” value is on record as 1% and the Z score is -0.06.
For the compound `CCN(Cc1noc(C)n1)Cc1cc2cc(OC)ccc2[nH]c1=O`, the “% Inhibition” value is 1% and the Z score is -0.14.
The matching figures for `CC1=C[C@@H](CNC(=O)CC2(CC(=O)O)CCCC2)[C@H](C(C)C)C[C@H]1Cc1nc2ccccc2n1C`: 23% and -2.59.
The matching figures for `CC(=O)N(CCC(=O)N(C1CC1)[C@@H](C)C1CC1)Cc1ccccc1`: -11% and 2.14.
Consider `CN(Cc1cccn1C)S(=O)(=O)Cc1ccc(F)c(Cl)c1`, for which the “% Inhibition” value is 2% and the Z score is -0.38.
The matching figures for `Nc1c(NC(C2CC2)C2CC2)ncnc1-n1cccn1`: -48% and 5.6.
The corresponding values for `O=S1(=O)CC(O)C(N2CCCC3(CCCCCC3)C2)C1` (stereo not given) are -2% and 0.2.
Take `c1ccc(CN=C(NCCN2CCOCC2)NCC2CC2)cc1`: the “% Inhibition” value is listed as -13% and the Z score amounted to 1.81.
